Laboratory results from patent US12589158B2 (priority 2022, dated 2026).
At least one structure is not confirmed: it was looked up by name or label, or the drawing left a doubt.

Assays:
db/db mice [1] = test: Pharmacodynamics in db/db mice, single subcutaneous administration (blood glucose); format: in vivo; settings: single s.c. 10 nmol/kg
Procedure: The “inhibition of blood glucose AUC” as disclosed in the present invention is the reduction percentage of blood glucose AUC in the group taken the test compound as compared with the group taken the Vehicle. Inhibition of blood glucose AUC=(blood glucose AUCVehicle-blood glucose AUCtest compound)/blood glucose AUCVehicle.
In this study, 8-9 week old male db/db mice are used. The db/db mice are placed in an individual ventilated cage (IVC) facility with a controlled temperature (20-26° C.) and humidity (40-70%) and a controlled 12h: 12 h light-dark cycle. The mice received food and water ad libitum. Blood is sampled at the tail tip, and the fasting blood glucose is measured by a Roche blood glucose meter. The mice are randomly divided into groups according to the initial blood glucose and initial body weight (n=6/group), and each group had similar body weight and blood glucose.
After a single subcutaneous administration, the random blood glucoses are recorded at the set time point (0 to 120 hours, the recording of the random blood glucose is stopped until there is no difference between the random blood glucose of the compound and that of the vehicle group), and the daily body weight and food intake are also recorded. The data results are statistically analyzed using GraphPad Prism8, and the statistical differences among the groups are analyzed following a T-Test. Significant differences are identified at p<0.05.
Hypoglycemic Duration: the longest time during which the random blood glucose of the compound has a significant difference (P<0.05) vs. the vehicle group.

db/db mice [2] = test: Multiple administration experiment on db/db mice; format: in vivo; settings: s.c. every 3 days for 4 weeks, Mean ± SEM, 6 mice

| Compound | duration of drug effects longer than that of Tirzepatide (db/db mice [1]) [h] | AUC 4-25 day Glu (db/db mice [2]; 3 nmol/kg) [mmol·days/L] | D28 Fasting Blood Glucose (db/db mice [2]; 3 nmol/kg) [mmol/L] | Serum TBIL (db/db mice [2]; 3 nmol/kg) [µmol/L] | AUC 4-25 day Glu (db/db mice [2]; 10 nmol/kg) [mmol·days/L] | D28 Fasting Blood Glucose (db/db mice [2]; 10 nmol/kg) [mmol/L] | Serum TBIL (db/db mice [2]; 10 nmol/kg) [µmol/L] | Serum TG (db/db mice [2]; 10 nmol/kg) [mmol/L] | AUC 4-25 day Glu (db/db mice [2]; 30 nmol/kg) [mmol·days/L] | D28 Fasting Blood Glucose (db/db mice [2]; 30 nmol/kg) [mmol/L] | Serum TBIL (db/db mice [2]; 30 nmol/kg) [µmol/L] | duration of hypoglycemic effect longer than that of P001 (db/db mice [1]) [h] |
| --- | --- | --- | --- | --- | --- | --- | --- | --- | --- | --- | --- | --- |
| CC[C@H](C)[C@H](NC(=O)C(C)(C)NC(=O)[C@H](Cc1ccc(O)cc1)NC(=O)[C@H](CC(=O)O)NC(=O)[C@H](CO)NC(=O)[C@@H](NC(=O)C(C)(Cc1ccccc1)NC(=O)[C@@H](NC(=O)CNC(=O)[C@H](CCC(=O)O)NC(=O)C(C)(C)NC(=O)[C@@H](N)Cc1ccc(O)cc1)[C@@H](C)O)[C@@H](C)O)C(=O)NC(C)(C)C(=O)N[C@@H](CC(C)C)C(=O)N[C@@H](CC(=O)O)C(=O)N[C@@H](CCCCN)C(=O)N[C@@H](CCC(N)=O)C(=O)N[C@@H](C)C(=O)N[C@@H](CCC(N)=O)C(=O)N[C@@H](C)C(=O)N[C@@H](CCC(=O)O)C(=O)N[C@@H](Cc1ccccc1)C(=O)N[C@H](C(=O)N[C@@H](CCCCN)C(=O)N[C@@H](Cc1c[nH]c2ccccc12)C(=O)N[C@@H](CC(C)C)C(=O)N[C@@H](CC(C)C)C(=O)N[C@@H](CCCCNC(=O)COCCOCCNC(=O)COCCOCCNC(=O)COCCOCCNC(=O)CC[C@H](NC(=O)CCCCCCCCCCCCCCCCCCCCC(=O)O)C(=O)O)C(=O)NCC(=O)NCC(=O)N1CCC[C@H]1C(=O)N[C@@H](CO)C(=O)N[C@@H](CO)C(=O)NCC(=O)N[C@@H](C)C(=O)N1CCC[C@H]1C(=O)N1CCC[C@H]1C(=O)N1CCC[C@H]1C(=O)N[C@@H](CO)C(=O)N[C@@H](CCCCN)C(N)=O)C(C)C (some centres unmarked) [P020] | 56 | 268.28 ± 24.64 | 9.6 ± 1.32 | 1.54 ± 0.25 | 290.78 ± 27.25 | 10.7 ± 1.62 | 0.91 ± 0.05 | 1.07 ± 0.03 | 184.18 ± 22.44 | 8.22 ± 1.07 | 0.95 ± 0.28 | – |
| CC[C@H](C)[C@H](NC(=O)C(C)(C)NC(=O)[C@H](Cc1ccc(O)cc1)NC(=O)[C@H](CC(=O)O)NC(=O)[C@H](CO)NC(=O)[C@@H](NC(=O)C(C)(Cc1ccccc1)NC(=O)[C@@H](NC(=O)CNC(=O)[C@H](CCC(=O)O)NC(=O)C(C)(C)NC(=O)[C@@H](N)Cc1ccc(O)cc1)[C@@H](C)O)[C@@H](C)O)C(=O)NC(C)(C)C(=O)N[C@@H](CC(C)C)C(=O)N[C@@H](CC(=O)O)C(=O)N[C@@H](CCCCN)C(=O)N[C@@H](CCC(N)=O)C(=O)N[C@@H](C)C(=O)N[C@@H](CCC(N)=O)C(=O)N[C@@H](C)C(=O)N[C@@H](CCC(=O)O)C(=O)N[C@@H](Cc1ccccc1)C(=O)N[C@H](C(=O)N[C@@H](CCCCNC(=O)COCCOCCNC(=O)COCCOCCNC(=O)CC[C@H](NC(=O)CCCCCCCCCCCCCCCCCCCCC(=O)O)C(=O)O)C(=O)N[C@@H](Cc1c[nH]c2ccccc12)C(=O)N[C@@H](CC(C)C)C(=O)N[C@@H](CC(C)C)C(=O)N[C@@H](CCCCN)C(=O)NCC(=O)NCC(=O)N1CCC[C@H]1C(=O)N[C@@H](CO)C(=O)N[C@@H](CO)C(=O)NCC(=O)N[C@@H](C)C(=O)N1CCC[C@H]1C(=O)N1CCC[C@H]1C(=O)N1CCC[C@H]1C(=O)N[C@@H](CO)C(=O)N[C@@H](CCCCN)C(N)=O)C(C)C (some centres unmarked) [P014] | 48 | 294 ± 40.43 | 10.22 ± 1.58 | 0.58 ± 0.11 | 214.4 ± 33.73 | 10.72 ± 1.75 | 0.58 ± 0.15 | – | 190.62 ± 26.47 | 13.38 ± 3.38 | 0.36 ± 0.15 | 72 |
| CC[C@H](C)[C@H](NC(=O)C(C)(C)NC(=O)[C@H](Cc1ccc(O)cc1)NC(=O)[C@H](CC(=O)O)NC(=O)[C@H](CO)NC(=O)[C@@H](NC(=O)C(C)(Cc1ccccc1)NC(=O)[C@@H](NC(=O)CNC(=O)[C@H](CCC(=O)O)NC(=O)C(C)(C)NC(=O)[C@@H](N)Cc1ccc(O)cc1)[C@@H](C)O)[C@@H](C)O)C(=O)NC(C)(C)C(=O)N[C@@H](CC(C)C)C(=O)N[C@@H](CC(=O)O)C(=O)N[C@@H](CCCCN)C(=O)N[C@@H](CCC(N)=O)C(=O)N[C@@H](C)C(=O)N[C@@H](CCC(N)=O)C(=O)N[C@@H](C)C(=O)N[C@@H](CCC(=O)O)C(=O)N[C@@H](Cc1ccccc1)C(=O)N[C@H](C(=O)N[C@@H](CCCCN)C(=O)N[C@@H](Cc1c[nH]c2ccccc12)C(=O)N[C@@H](CC(C)C)C(=O)N[C@@H](CC(C)C)C(=O)N[C@@H](CCCCNC(=O)COCCOCCNC(=O)COCCOCCNC(=O)COCCOCCNC(=O)CC[C@H](NC(=O)CCCCCCCCCCCCCCCCC(=O)O)C(=O)O)C(=O)NCC(=O)NCC(=O)N1CCC[C@H]1C(=O)N[C@@H](CO)C(=O)N[C@@H](CO)C(=O)NCC(=O)N[C@@H](C)C(=O)N1CCC[C@H]1C(=O)N1CCC[C@H]1C(=O)N1CCC[C@H]1C(=O)N[C@@H](CO)C(=O)N[C@@H](CCCCN)C(N)=O)C(C)C (some centres unmarked) [P019] | – | – | – | – | – | – | – | – | – | – | – | 24 |
| CC[C@H](C)[C@H](NC(=O)C(C)(C)NC(=O)[C@H](Cc1ccc(O)cc1)NC(=O)[C@H](CC(=O)O)NC(=O)[C@H](CO)NC(=O)[C@@H](NC(=O)C(C)(Cc1ccccc1)NC(=O)[C@@H](NC(=O)CNC(=O)[C@H](CCC(=O)O)NC(=O)C(C)(C)NC(=O)[C@@H](N)Cc1ccc(O)cc1)[C@@H](C)O)[C@@H](C)O)C(=O)NC(C)(C)C(=O)N[C@@H](CC(C)C)C(=O)N[C@@H](CC(=O)O)C(=O)N[C@@H](CCCCN)C(=O)N[C@@H](CCC(N)=O)C(=O)N[C@@H](C)C(=O)N[C@@H](CCC(N)=O)C(=O)N[C@@H](C)C(=O)N[C@@H](CCC(=O)O)C(=O)N[C@@H](Cc1ccccc1)C(=O)N[C@H](C(=O)N[C@@H](CCCCN)C(=O)N[C@@H](Cc1c[nH]c2ccccc12)C(=O)N[C@@H](CC(C)C)C(=O)N[C@@H](CC(C)C)C(=O)N[C@@H](CCCCNC(=O)COCCOCCNC(=O)COCCOCCNC(=O)CC[C@H](NC(=O)CCCCCCCCCCCCCCCCC(=O)O)C(=O)O)C(=O)NCC(=O)NCC(=O)N1CCC[C@H]1C(=O)N[C@@H](CO)C(=O)N[C@@H](CO)C(=O)NCC(=O)N[C@@H](C)C(=O)N1CCC[C@H]1C(=O)N1CCC[C@H]1C(=O)N1CCC[C@H]1C(=O)N[C@@H](CO)C(=O)N[C@@H](CCCCN)C(N)=O)C(C)C (some centres unmarked) [P008] | – | – | – | – | – | – | – | – | – | – | – | 40 |
| CC[C@H](C)[C@H](NC(=O)C(C)(C)NC(=O)[C@H](Cc1ccc(O)cc1)NC(=O)[C@H](CC(=O)O)NC(=O)[C@H](CO)NC(=O)[C@@H](NC(=O)C(C)(Cc1ccccc1)NC(=O)[C@@H](NC(=O)CNC(=O)[C@H](CCC(=O)O)NC(=O)C(C)(C)NC(=O)[C@@H](N)Cc1ccc(O)cc1)[C@@H](C)O)[C@@H](C)O)C(=O)NC(C)(C)C(=O)N[C@@H](CC(C)C)C(=O)N[C@@H](CC(=O)O)C(=O)N[C@@H](CCCCN)C(=O)N[C@@H](CCC(N)=O)C(=O)N[C@@H](C)C(=O)N[C@@H](CCC(N)=O)C(=O)N[C@@H](C)C(=O)N[C@@H](CCC(=O)O)C(=O)N[C@@H](Cc1ccccc1)C(=O)N[C@H](C(=O)N[C@@H](CCCCNC(=O)COCCOCCNC(=O)COCCOCCNC(=O)CC[C@H](NC(=O)CCCCCCCCCCCCCCCCC(=O)O)C(=O)O)C(=O)N[C@@H](Cc1c[nH]c2ccccc12)C(=O)N[C@@H](CC(C)C)C(=O)N[C@@H](CC(C)C)C(=O)N[C@@H](CCCCN)C(=O)NCC(=O)NCC(=O)N1CCC[C@H]1C(=O)N[C@@H](CO)C(=O)N[C@@H](CO)C(=O)NCC(=O)N[C@@H](C)C(=O)N1CCC[C@H]1C(=O)N1CCC[C@H]1C(=O)N1CCC[C@H]1C(=O)N[C@@H](CO)C(=O)N[C@@H](CCCCN)C(N)=O)C(C)C (some centres unmarked) [P007] | – | – | – | – | – | – | – | – | – | – | – | 24 |
| CC[C@H](C)[C@H](NC(=O)C(C)(C)NC(=O)[C@H](Cc1ccc(O)cc1)NC(=O)[C@H](CC(=O)O)NC(=O)[C@H](CO)NC(=O)[C@@H](NC(=O)C(C)(Cc1ccccc1)NC(=O)[C@@H](NC(=O)CNC(=O)[C@H](CCC(=O)O)NC(=O)C(C)(C)NC(=O)[C@@H](N)Cc1ccc(O)cc1)[C@@H](C)O)[C@@H](C)O)C(=O)NC(C)(C)C(=O)N[C@@H](CC(C)C)C(=O)N[C@@H](CC(=O)O)C(=O)N[C@@H](CCCCN)C(=O)N[C@@H](CCC(N)=O)C(=O)N[C@@H](C)C(=O)N[C@@H](CCC(N)=O)C(=O)N[C@@H](C)C(=O)N[C@@H](CCC(=O)O)C(=O)N[C@@H](Cc1ccccc1)C(=O)N[C@H](C(=O)N[C@@H](CCCCNC(=O)COCCOCCNC(=O)COCCOCCNC(=O)CC[C@H](NC(=O)CCCCCCCCCCCCCCCCCCC(=O)O)C(=O)O)C(=O)N[C@@H](Cc1c[nH]c2ccccc12)C(=O)N[C@@H](CC(C)C)C(=O)N[C@@H](CC(C)C)C(=O)N[C@@H](CCCCN)C(=O)NCC(=O)NCC(=O)N1CCC[C@H]1C(=O)N[C@@H](CO)C(=O)N[C@@H](CO)C(=O)NCC(=O)N[C@@H](C)C(=O)N1CCC[C@H]1C(=O)N1CCC[C@H]1C(=O)N1CCC[C@H]1C(=O)N[C@@H](CO)C(=O)N[C@@H](CCCCN)C(N)=O)C(C)C (some centres unmarked) [P013] | 24 | – | – | – | – | – | – | – | – | – | – | – |
